From article PMC12136788
Some of the results follow.

T1: UNK ZnF1-6 (called full-length) (human, UniProt Q9C0B0 30-357)
T1 sequence: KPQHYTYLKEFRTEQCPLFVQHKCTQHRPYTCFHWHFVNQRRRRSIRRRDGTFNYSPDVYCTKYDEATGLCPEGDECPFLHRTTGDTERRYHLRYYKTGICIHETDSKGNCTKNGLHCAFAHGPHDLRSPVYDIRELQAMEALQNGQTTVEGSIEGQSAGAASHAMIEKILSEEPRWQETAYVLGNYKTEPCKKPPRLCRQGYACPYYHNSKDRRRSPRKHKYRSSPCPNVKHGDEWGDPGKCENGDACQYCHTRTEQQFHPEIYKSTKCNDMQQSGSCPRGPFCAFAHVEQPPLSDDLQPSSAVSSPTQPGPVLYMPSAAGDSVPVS

B1: chr11:10797513:10797714:-|3pUTR|ENSG00000110321|msi1_unk|FALSE|overlapping (ssRNA)
RNA: GGGAGUUCUACAGUCCGACGAUCUUCUGCAUAAGGUUUUUUUGUAGUGUAAUGUCUUAAUCAUAGUCUACCAUCAAAUAUUUUAGGAGUAUCUUUAAUGUUUAGAUAGUAUAUUAGCAGCAUGCAAUAAUUACAUCAUAAGUUCAACAGAGGAUUGAGCAUCA
B2: ENSG00000107863:be:win_3701|CDS|ENSG00000107863|bound_else_gene|NA|bound_elsewhere_windowed (ssRNA)
RNA: GGGAGUUCUACAGUCCGACGAUCUCUUCACAAAUGAUAAAUAUGCUGAUUUUAUUGAAGCCAAUCGUAAAGAAGAUCCUCUAGAUCGUCUGAAAACAUUAAAAAGACUAAUUCACGAUUUGCCUGAACAUCAUUAUGAAACACCAACAGAGGAUUGAGCAUCA
B3: chr12:32755127:32755228:-|CDS|ENSG00000139131|unk|total|mutant (ssRNA)
RNA: GGGAGUUCUACAGUCCGACGAUCCUUCUAUUACCUCUUCCAGCGUUAUGGAUGCAGGGUCCAGCUGGGCGGAUCUGAUCAACCCGGCAACAUCAUGUCCGGAUAUGAGUUCAUCAACAAGUAAGUGCCUUUAAACCUUGGGGACAACAGAGGAUUGAGCAUCA
B4: chr7:32869000:32869101:-|3pUTR|ENSG00000170852|msi1|total|mutant (ssRNA)
RNA: GGGAGUUCUACAGUCCGACGAUCAAUUGAGAAACUUUAUGUGUAAUCAUGAGAGUAUAAGAAUCUGGAUUAUCUAACAUUGUCCGCCCUGUGUAUGUACAGUUCAAAAAGUUCAUUUAUAAAAGCCGUUUCCUGUUCCCCGUGCAACAGAGGAUUGAGCAUCA
B5: chr5:72198766:72198867:+|CDS|ENSG00000131711|msi1_unk|total|mutant (ssRNA)
RNA: GGGAGUUCUACAGUCCGACGAUCUUCUACCUCUGCAGUCAAAGAGAAAACAGCAACUUGCCACAGUUCCUCUUCUCCACCAACCGAUGCAGCAUCCGCAGAGCCCUAUGGCUUCCGUGCCUCAGUGUUAUUCGAUACAAUGCACAACAGAGGAUUGAGCAUCA
B6: chr22:40825413:40825514:-|3pUTR|ENSG00000100380|msi1|total|mutant (ssRNA)
RNA: GGGAGUUCUACAGUCCGACGAUCGGUAAUACCCACAACAACUGCCGUUUCUUACUUGGCCAAGAGAAUGCUUAUUUAAGUGUCCGACUUCCAUUCUGGCAAAAUCUUGCCUUAUCAGAAGACAUUGGAAAGAGGGAUUCCCUUCAACAGAGGAUUGAGCAUCA
B7: chr22:29555535:29555644:-|3pUTR|ENSG00000184117|unk|total|mutant (ssRNA)
RNA: GGGAGUUCUACAGUCCGACGAUCUUCCUCAUCUCAAGGCCACCAGUCCCCAGUUAUCACCCUUGGAAAUCCUCUGUUCCGCUCCGUUGCACAAAAGGCCGUAUGUCCAGUGGCCCGAGGUGGGGUGGGAAGAGAGGAGGCCAGCAACAGAGGAUUGAGCAUCA
B8: chr15:44562695:44563301:-|three_prime_utr|ENSG00000104133|control|control|control (ssRNA)
RNA: GGGAGUUCUACAGUCCGACGAUCUGAAAUUGUAAAUGUGCUUCUGAAGGACCCUCAGACAGGUUGCUGUCUAAAGGACAUGCUAGCAGGUUAGAUGAUUUCAUAGGUGUCUGUUUUCUUGUACUGUUAGCAGAUUCUGACAGACAACAGAGGAUUGAGCAUCA
B9: ENSG00000107863:be:win_351|CDS|ENSG00000107863|bound_else_gene|NA|bound_elsewhere_windowed (ssRNA)
RNA: GGGAGUUCUACAGUCCGACGAUCAUUAUGUACAGGUGACCGAAUUAUAAAAGUCAAUGGAGAAAGUGUUAUUGGCAAAACCUAUUCCCAAGUAAUUGCUUUAAUUCAAAACAGUGAUACAACAUUGGAACUUAGUGUUAUGCCCAACAGAGGAUUGAGCAUCA
B10: chr1:161190761:161190881:-|3pUTR|ENSG00000158859|msi1|total|mutant (ssRNA)
RNA: GGGAGUUCUACAGUCCGACGAUCUGCGGGUCACAGGAGGGAGGGGGAAGGCAGGGAGGGCCUGGGCCCCAGUUGUAUUUAUUCCGUAUUUAUUCACUUUUAUUCCGCACCAGGGAAGGGGACAAGGACCCGGGUCCUGGGGAACAACAGAGGAUUGAGCAUCA
B11: chr10:15076986:15077088:-|3pUTR|ENSG00000176244|unk|FALSE|unique (ssRNA)
RNA: GGGAGUUCUACAGUCCGACGAUCUUUUCCUUUAAGAAGAUACCCAGUAGUGGGAUUGCUGGGUAGAAUGGUAGUUCUAUUUUUAGUUCCAUGAGAAAUUUCCGUGCUGUUUUUCAUAGAGGUUGUACUAAUUUACAUUCCCACCAACAGAGGAUUGAGCAUCA
B12: chr3:121431430:121432303:-|three_prime_utr|ENSG00000051341|control|control|control (ssRNA)
RNA: GGGAGUUCUACAGUCCGACGAUCUGGAAAGAACAGAGAUUACCCUUUCACCUACCUCAGCAAAACAAACUUUCAAGUCUUGAUAGACUUAGCCUAGUAAUUUUAUAGUGAGAGUUUCAAACUAUAUAUCAGUGUCUAUAGCAUCAACAGAGGAUUGAGCAUCA
B13: chr6:142752714:142752806:-|3pUTR|ENSG00000010818|msi1_unk|FALSE|overlapping (ssRNA)
RNA: GGGAGUUCUACAGUCCGACGAUCUUUUCUUUACUUUGCUUAUAUUCUUAUAAGCAUUUUUUAGCAGUAAUUUGUACAUAUUUUAGAAUUUGUGUAUCUGCUUUGUAAUAAAUGUAAUUUCUUUCCUUUUUUGGACACUUGGAUCAACAGAGGAUUGAGCAUCA
B14: chr1:165890246:165890361:+|CDS|ENSG00000143179|unk|FALSE|unique (ssRNA)
RNA: GGGAGUUCUACAGUCCGACGAUCCUCCUGGGGCAGAAUGAGGUGGACUAUCGCCAGAAGCAGGUGGUCAUCCUGAGCCAGGAUAGCUUCUACCGUGUCCUUACCUCGGAGCAGAAGGCCAAAGCCCUGAAGGGCCAGUUCAACCAACAGAGGAUUGAGCAUCA
B15: ENSG00000070961:be:win_3901|3pUTR|ENSG00000070961|bound_else_gene|NA|bound_elsewhere_windowed (ssRNA)
RNA: GGGAGUUCUACAGUCCGACGAUCAAGUGACCUGUGGAUCAUCAGUAGUACCCAAGCAUGGUCCUGAACAGUGUAUUAGCAGAGCUUUAGUUUAUCUCAGUCCUGGAUGGGAGAGAGAGGGAGGAGUAAAACUGGGCAAGACAACAACAGAGGAUUGAGCAUCA
B16: chr17:69546800:69546959:+|3pUTR|ENSG00000108984|unk|FALSE|unique (ssRNA)
RNA: GGGAGUUCUACAGUCCGACGAUCUCAACUUCAUAGGACUUUUUUUUUUUUUAACUUUUCAAAUGGAAGGUGCAGUUUUCAAUUAGGCCUCUGAAAAUUUACAUAGUCAGAUGGAAAAAUGCCAGAGUAAAAUCUAGGAAGAAGCAACAGAGGAUUGAGCAUCA
B17: chr19:45844017:45844118:-|CDS|ENSG00000125755|msi1|total|mutant (ssRNA)
RNA: GGGAGUUCUACAGUCCGACGAUCGCCCGCCAGAGACCCAUGUUCAUGUCUGAGGUGAUCCAGGCCUAUGAAACUCUGCAUGGCCGGUCAUUGUCCUCCCCCCUCCCCCUGCCUUCUCUUCACUGGCCAGUCUGCUCUUUCUUUCAACAGAGGAUUGAGCAUCA
B18: chr10:126015758:126015859:-|3pUTR|ENSG00000148848|msi1|FALSE|unique (ssRNA)
RNA: GGGAGUUCUACAGUCCGACGAUCAAAUACUCAGAUAAGGUAAAAUGCCAUGAUGCCUCUGUCUUCUGGACUGGUUUUCACAUUAGAAGACAAUUGACAACAGUUACAUAAUUCACUCUGAGUGUUUUAUGAGAAAGCCUUCUUCAACAGAGGAUUGAGCAUCA
B19: chr11:73394502:73394603:+|CDS|ENSG00000054967|msi1|FALSE|unique (ssRNA)
RNA: GGGAGUUCUACAGUCCGACGAUCCACCAUCUCCACACCGUGCAGGGCCUGGCCUCGCUCUCUGGCCCCUGCUGCUCCCGCUGUAGCCAGAAGAAGUGGCCCGAGGUGCUGCUGUCCCCUGAGGCUGUAGCCGCCACUACUCCUCAACAGAGGAUUGAGCAUCA
B20: chr2:128193554:128193655:+|3pUTR|ENSG00000136731|msi1|total|mutant (ssRNA)
RNA: GGGAGUUCUACAGUCCGACGAUCCCUUGUCAAGGCUCUGCCUGAAUGAGUUUUCAUCUGAUUGUGGGGACCAAGUCCCUGAGCCGAGGGCCAAGAGCCCGGGACAGGGGGAAGAGACUGGCCCAGGUGGCCGGGAGGAAAGAACAACAGAGGAUUGAGCAUCA
B21: chr5:76733371:76733472:+|CDS|ENSG00000181104|msi1|total|mutant (ssRNA)
RNA: GGGAGUUCUACAGUCCGACGAUCGAUCCCAGCAGUUAUAACAGCAGUGGGCAGUUGAUGGCAAGUAAAAUGGAUACCUGCUCCCGUAACCUGAAUAACAGCAUAUACAAAAAGCUGUUAACUCCGGAAAAGGGACUGCUGGGACAACAGAGGAUUGAGCAUCA
B22: chrX:80717640:80717741:-|CDS|ENSG00000165288|msi1|total|mutant (ssRNA)
RNA: GGGAGUUCUACAGUCCGACGAUCCUGAGAAGUCCAAACAUGGACAUAUCUUCUUCCCCAAACAUCAGGCUUCGAAGACACCGCCGUCAAAUUGAAGGUGUCCGACAAAUGCAUAACAAUGCUCCUCGGAGCCAGAUGGCCACUCAACAGAGGAUUGAGCAUCA

What follows are binders tested against T1, UNK ZnF1-6 (called full-length) (assay: nsRBNS (natural sequence RNA bind-n-seq); RBNS binding buffer (assumed for nsRBNS): 25 mM Tris pH 7.5, 150 mM KCl, 3 mM MgCl2, 0.01% Triton X-100, 500 ug/ml BSA, 20 U/ml SUPERase-In, 4 C; UNK is unkempt and MSI1 is Musashi-1; names of the RNAs are library labels; protein concentration not given here; high values mean tight binding).

Compared with B1, B2 is lower in binding signal: 1.96 enrichment R for the first, 0.382 enrichment R for the second.

Compared with B3, B4 is lower in binding signal: 0.489 enrichment R for the first, 0.396 enrichment R for the second.

Compared with B5, B6 is lower in binding signal: 0.457 enrichment R for the first, 0.282 enrichment R for the second.

First: B7
Second: B8
The binding signal of the first is higher: 0.742 enrichment R for the first, 0.537 enrichment R for the second.

First: B9
Second: B10
The binding signal of the first is lower: 0.424 enrichment R for the first, 2.05 enrichment R for the second.

Going from B11 to B12, the binding signal rises from 2.35 enrichment R to 8.5 enrichment R.

Compared with B13, B14 is lower in binding signal: 2.11 enrichment R for the first, 0.748 enrichment R for the second.

Compared with B15, B16 is higher in binding signal: 1.72 enrichment R for the first, 6 enrichment R for the second.

First: B17
Second: B18
The binding signal of the first is higher: 0.997 enrichment R for the first, 0.315 enrichment R for the second.

Going from B19 to B20, the binding signal falls from 0.839 enrichment R to 0.788 enrichment R.

Compared with B21, B22 is lower in binding signal: 0.568 enrichment R for the first, 0.387 enrichment R for the second.
